According to PubChem BioAssay (NCATS):
“And” between values parts separate entries of the source, which are not always exact repeats. Equal values may be shown once. Inconclusive means that the source gave no clear call. Such entries were picked first, then a sample of the others. For part of these data: Potencies of inconclusive entries are doubtful fits and often do not repeat. The source made the active and inactive calls. Unless noted, calls come from the whole dose curve; as a rule, active = well fitted curve in the direction sought with a large enough effect; inconclusive = small, poorly fitted or top-dose-only effect, or another doubt; inactive = no such curve, though single readings can be large; an effect the other way counts as inactive or inconclusive.

How the values were obtained:
[1] = AP1 Signaling Pathway (AID 357; active = well fitted curve in either direction with a large enough effect, not every such curve was filed as active; inconclusive = small, poorly fitted or top-dose-only effect, or another doubt; note: top concentration of the series differs between compounds; % is set by controls: 0 for no effect and ±100 for the full control effect); conditions: ME-180 AP-1-bla reporter, EGF-induced, beta-lactamase ratio, 5 h; at 7.69 µM (top of the series) unless noted
Summary of the method: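 ME-180 cells with beta-lactamase reporter under AP-1 response element, stimulated with EC50 EGF; compounds tested in titration series, 5 h at 37 °C. CCF4 substrate added 2.5 h at room temperature; 460/530 nm emission ratio gave %activity and AC50.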

[2] = NFAT Signaling Pathway (AID 444; active = well fitted curve in either direction with a large enough effect, not every such curve was filed as active; inconclusive = small, poorly fitted or top-dose-only effect, or another doubt;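 note: carbachol stimulus at about its EC50 of 1 µM final; % is set by controls: 0 for no effect and ±100 for the full control effect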); conditions: Jurkat NFAT-bla M1, carbachol, beta-lactamase ratio, 5 h; at 7.69 µM (top of the series) unless noted
Summary of the method: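 Read-out: CCF4 FRET ratio (460 nm/530 nm) after 1 h RT dye loading, used for %activity and AC50 from titration series. Cells: Jurkat NFAT-β-lactamase/M1 line, treated with compound plus 1 uM carbachol for 5 h, 37 °C.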

[3] = Stat Signaling Pathway (AID 446; active = well fitted curve in either direction with a large enough effect, not every such curve was filed as active; inconclusive = small, poorly fitted or top-dose-only effect, or another doubt;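 note: ME-180 cervical cancer cells given 40 pM IL-6 alongside compound; SIE-controlled beta-lactamase reporter measured as 460/530 nm FRET emission ratio; top concentration of the series differs between compounds; % is set by controls: 0 for no effect and ±100 for the full control effect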); conditions: ME-180 SIE beta-lactamase reporter, IL-6 stimulated, 5 h; at 7.69 µM (top of the series) unless noted
Summary of the method: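 Normalization used AC90 stimulation (300 pM IL-6) and AC90 inhibition (125 nM pan-JAK inhibitor at 40 pM IL-6). The underlying signal is SIE-driven beta-lactamase in ME-180 cells after 5 h IL-6 exposure with compound.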

[4] = qHTS Assay for Identification of Small Molecule Agonists for Hypoxia Response Element Signaling Pathway (AID 914; active = well fitted activation curve with a large enough effect in the signal ratio, with a control signal flat, not every such curve was filed as active; inconclusive = small, poorly fitted or top-dose-only effect, or effect the other way, or a change in a side signal; the % refers to the signal ratio; note: potency is the fitted concentration of half-maximal effect); conditions: ME-180 (cervical carcinoma) HRE-bla reporter, beta-lactamase ratio, CoCl2, 17 h; activation: stronger effect = higher value
Summary of the method: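 Read-out: CCF4 FRET ratio of 460nm to 530nm emission (excitation 405nm) after 2.5 hours at room temperature, taken from HRE-bla ME-180 cells that had been exposed to compound and EC50 CoCl2 for 17 hours.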

[5] = qHTS Assay for Lipid Storage Modulators (AID 1519; calls by dose curve; note: % is set by controls: 0 for no effect and ±100 for the full control effect); conditions: Drosophila S3 cells, BODIPY lipid droplet/cell ratio, laser cytometry, cells loaded with oleic acid; activity change, negative = inhibition: at 57.5 µM (top of the series) unless noted
Summary of the method: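 Cells seeded at 5,000 per well were treated with compounds over a concentration series and loaded with oleic acid (400 uM, as added). Lipid droplet fluorescence (488 nm excitation, 500-530 nm channel) was read by laser-scanning cytometry and normalized to 20 uM Triacsin C.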

[6] = Primary qHTS for small molecule stabilizers of the endoplasmic reticulum resident proteome: Secreted ER Calcium Modulated Protein (SERCaMP) assay (AID 1508630); conditions: SH-SY5Y GLuc-SERCaMP (Gaussia luciferase released on ER calcium loss) secretion, thapsigargin, luminescence; activity change, negative = inhibition: at 38.4 µM (top of the series) unless noted; note: potency is the fitted concentration of half-maximal effect
Summary of the method: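 The SH-SY5Y reporter protocol was run at 3 concentrations up to 38.3 uM (primary) or 11 concentrations (follow-up): 16 h compound, 100 nM thapsigargin for 4 h, then extracellular luciferase luminescence.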

[7] = biological target: Mitogen-activated protein kinase 10 (Mus musculus) (UniProt Q61831); test: JNK3 AlphaScreen Assay (AID 530; active = well fitted curve in either direction with a large enough effect, not every such curve was filed as active; inconclusive = small, poorly fitted or top-dose-only effect, or another doubt;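 note: kinase came from lysate of stimulated human HepG2 cells; signal reports phosphorylation of biotinylated GST-cJun 1-79 at Ser73 with 10 µM ATP; potency is the fitted concentration of half-maximal effect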); conditions: JNK3 lysate, c-Jun phosphorylation; activity change, negative = inhibition: at 57.1 µM (top of the series)
Summary of the method: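 qHTS titrations with 15 min compound pre-incubation before adding ATP (10 uM final). Read-out: AlphaScreen of Ser73-phosphorylated biotin-GST-cJun using HepG2 lysate JNK3 activated by IL-1β and TNFα.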

[8] = biological target: Cytochrome P450 2D6 (Homo sapiens) (UniProt P10635); test: qHTS Assay for Inhibitors and Substrates of Cytochrome P450 2D6 (AID 891);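 note: luciferin methyl ether substrate demethylated by CYP2D6 with NADPH regeneration; potency is the fitted concentration of half-maximal effect; nearly all actives have a fitted effect of over 60% in size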
Summary of the method: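 Luminescent read-out of luciferin formed by 5 nM human CYP2D6 demethylating 30 uM Luciferin-ME EGE (Km level) over 60 min at room temperature after NADPH regeneration addition. Data normalized to full inhibition by 1.43 uM quinidine.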

[9] = qHTS Assay for Identification of Small Molecule Antagonists for NFkB Signaling Pathway (AID 895; active = well fitted inhibition curve with a large enough effect in the signal ratio, with a control signal flat, not every such curve was filed as active; inconclusive = small, poorly fitted or top-dose-only effect, or effect the other way, or a change in a side signal; the % refers to the signal ratio; note: % is set by controls: 0 for no effect and ±100 for the full control effect); conditions: NFkB beta-lactamase reporter cells, FRET ratio 460/530, stimulated with 10 pM TNF alpha; activity change, negative = inhibition: at 38.3 µM (top of the series)
Summary of the method: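 Beta-lactamase reporter read-out (460 and 530 nm emission ratio, 405 nm excitation, 2 hrs substrate loading RT) after 5 hr stimulation with 10 pM TNF alpha in compound-treated NFkB-bla ME-180 cells in low-serum medium.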

[10] = qHTS Assay for Identification of Small Molecule Agonists for Thrombopoietin (TPO) Signaling Pathway (AID 917); note: potency is the fitted concentration of half-maximal effect
Summary of the method: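 First, Ba/F3 cells with human TPO receptor were held overnight without IL-3. Next, compounds and TPO (26 pM final) were added. After 24 hrs at 37 C, luciferase detection reagent was added and luminescence measured following 10 min at room temperature.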

[11] = biological target: Muscarinic acetylcholine receptor M1 (Rattus norvegicus) (UniProt P08482); test: qHTS Assay for Antagonists of Acetylcholine Muscarinic M1 Receptor: Kinetic Measurement of Intracellular Calcium Response (AID 943); note: potency is the fitted concentration of half-maximal effect; nearly all actives have a fitted effect of over 75% in size
Summary of the method: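 Antagonism measured as reduction of carbachol-evoked (EC80, 100 nM final) calcium flux in rat M1-CHO cells after 10 min compound exposure. Fluo-4 signal read kinetically; ratio of maximal to basal fluorescence.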

[12] = biological target: Muscarinic acetylcholine receptor M1 (Rattus norvegicus) (UniProt P08482); test: qHTS Assay for Antagonists of Acetylcholine Muscarinic M1 Receptor: Measurement of IP-One Response (AID 944); note: potency is the fitted concentration of half-maximal effect; nearly all actives have a fitted effect of over 75% in size
[13] = qHTS for differential inhibitors of proliferation of Plasmodium falciparum line 7G8 (AID 1815);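 note: parasite growth measured after three days of incubation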; note: potency is the fitted concentration of half-maximal effect;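 for activity change, negative = inhibition: plate controls were vehicle wells for no effect and reference inhibitor wells for full effect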
[14] = qHTS for differential inhibitors of proliferation of Plasmodium falciparum line 3D7 (AID 1876);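 note: parasite growth measured after three days of culture; 0% = vehicle wells and -100% = reference inhibitor wells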
[15] = biological target: RecQ-like DNA helicase BLM (Homo sapiens) (UniProt P54132); test: qHTS Validation Assay for Inhibitors of Bloom's syndrome helicase (BLM) (AID 2364);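 note: plate controls were DMSO vehicle for no effect and enzyme-free control for full effect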
Summary of the method: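 Forked 20-bp duplex substrate (200 nM, TAMRA/BHQ-2) plus 2 mM ATP added after 15 min compound preincubation with 50 nM enzyme, pH 8.0, poly(dI-dC) 2.5 ug/ml. Strand separation followed by fluorescence (525/598 nm) over 2 h, normalized to enzyme-free and DMSO controls.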
Tags give direction and shape of the fitted curve or compound fluorescence and quenching.

Sequence of UniProt P08482 (P08482 whole entry, looked up): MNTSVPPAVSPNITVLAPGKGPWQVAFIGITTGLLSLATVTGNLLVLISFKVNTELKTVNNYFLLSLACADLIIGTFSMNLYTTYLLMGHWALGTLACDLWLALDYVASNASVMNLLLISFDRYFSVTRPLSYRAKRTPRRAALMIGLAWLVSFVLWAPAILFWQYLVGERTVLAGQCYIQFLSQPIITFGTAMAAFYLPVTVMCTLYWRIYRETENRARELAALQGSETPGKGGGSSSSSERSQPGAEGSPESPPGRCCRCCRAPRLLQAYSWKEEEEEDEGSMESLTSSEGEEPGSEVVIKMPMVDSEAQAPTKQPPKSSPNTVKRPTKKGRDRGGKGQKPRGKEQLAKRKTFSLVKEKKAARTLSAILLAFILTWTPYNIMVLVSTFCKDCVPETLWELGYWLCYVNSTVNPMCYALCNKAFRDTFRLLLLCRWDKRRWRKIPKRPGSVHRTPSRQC
Sequence of UniProt P54132 (P54132 whole entry, looked up): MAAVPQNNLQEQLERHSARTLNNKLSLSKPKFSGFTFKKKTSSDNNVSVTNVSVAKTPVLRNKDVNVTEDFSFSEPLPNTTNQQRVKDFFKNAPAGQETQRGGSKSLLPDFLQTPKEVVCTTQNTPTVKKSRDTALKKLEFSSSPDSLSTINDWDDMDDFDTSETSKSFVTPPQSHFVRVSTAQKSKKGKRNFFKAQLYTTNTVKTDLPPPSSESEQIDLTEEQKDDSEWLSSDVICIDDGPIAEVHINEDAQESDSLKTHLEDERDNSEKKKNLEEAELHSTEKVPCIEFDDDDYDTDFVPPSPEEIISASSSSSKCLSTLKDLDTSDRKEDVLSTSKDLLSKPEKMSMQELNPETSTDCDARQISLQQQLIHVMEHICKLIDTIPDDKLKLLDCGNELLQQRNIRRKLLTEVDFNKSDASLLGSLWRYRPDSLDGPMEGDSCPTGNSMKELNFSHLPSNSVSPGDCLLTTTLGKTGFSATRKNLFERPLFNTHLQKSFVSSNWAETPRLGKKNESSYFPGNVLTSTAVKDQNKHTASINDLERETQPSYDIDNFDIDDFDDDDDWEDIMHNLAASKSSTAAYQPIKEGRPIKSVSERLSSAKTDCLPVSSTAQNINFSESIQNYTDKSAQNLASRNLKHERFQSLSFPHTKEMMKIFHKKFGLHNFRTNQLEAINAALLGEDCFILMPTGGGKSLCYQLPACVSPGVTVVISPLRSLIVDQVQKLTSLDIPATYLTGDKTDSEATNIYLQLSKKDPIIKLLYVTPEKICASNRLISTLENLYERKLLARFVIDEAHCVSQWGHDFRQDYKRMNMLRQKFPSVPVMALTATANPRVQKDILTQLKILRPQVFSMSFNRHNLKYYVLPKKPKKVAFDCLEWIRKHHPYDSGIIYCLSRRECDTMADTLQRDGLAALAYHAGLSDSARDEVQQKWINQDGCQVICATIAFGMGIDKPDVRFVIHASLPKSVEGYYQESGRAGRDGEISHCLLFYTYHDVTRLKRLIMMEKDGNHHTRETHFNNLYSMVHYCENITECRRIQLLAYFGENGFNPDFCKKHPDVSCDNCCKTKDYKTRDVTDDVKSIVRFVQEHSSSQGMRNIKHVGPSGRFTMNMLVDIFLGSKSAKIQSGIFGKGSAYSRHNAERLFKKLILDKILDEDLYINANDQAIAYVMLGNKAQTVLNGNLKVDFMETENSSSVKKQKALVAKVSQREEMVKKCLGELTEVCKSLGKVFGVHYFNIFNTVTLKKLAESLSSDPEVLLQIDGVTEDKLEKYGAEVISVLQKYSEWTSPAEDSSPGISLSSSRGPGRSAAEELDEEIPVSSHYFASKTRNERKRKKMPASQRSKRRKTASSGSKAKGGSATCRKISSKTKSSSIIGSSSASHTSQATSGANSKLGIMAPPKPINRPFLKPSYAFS
Sequence of UniProt P10635 (P10635 whole entry, looked up): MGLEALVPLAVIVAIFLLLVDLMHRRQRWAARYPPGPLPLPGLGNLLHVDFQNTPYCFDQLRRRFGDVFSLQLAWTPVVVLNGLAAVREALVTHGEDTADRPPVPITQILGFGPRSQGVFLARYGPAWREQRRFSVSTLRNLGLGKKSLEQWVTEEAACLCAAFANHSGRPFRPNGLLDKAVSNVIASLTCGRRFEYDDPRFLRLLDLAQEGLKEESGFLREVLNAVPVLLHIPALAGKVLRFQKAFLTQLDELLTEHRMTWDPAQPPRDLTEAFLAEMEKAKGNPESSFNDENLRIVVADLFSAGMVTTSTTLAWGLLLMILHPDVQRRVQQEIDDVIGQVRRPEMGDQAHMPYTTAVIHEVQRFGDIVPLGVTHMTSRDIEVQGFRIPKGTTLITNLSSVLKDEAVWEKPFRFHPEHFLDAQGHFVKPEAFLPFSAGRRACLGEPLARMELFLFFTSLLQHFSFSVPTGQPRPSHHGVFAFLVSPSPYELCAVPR

In the case of `CN1CCN(c2ncc3nc(-c4ccc(Cl)cc4)c(=O)n(C)c3n2)CC1`, the activity change, negative = inhibition [1] is reported as inconclusive: 106% [activator], the activity change, negative = inhibition [2] is reported as inconclusive: 160% [activator] and the activity, negative = inhibition [3] is reported as inconclusive: 174% [activator]. For the same compound, the Potency [4] was active: 3.16 µM, the activity change, negative = inhibition [5] was inconclusive: 8.07% and the Potency [6] was “inactive”.

With `O=C(OCCN1CCCCC1)c1c[nH]c2ccccc12` the activity change, negative = inhibition [1] was inconclusive: 66.8% [activator] [at 38 µM], the Potency [7] was inconclusive: 31.6 µM [activator, partial curve, poor fit] and the Potency [8] was inconclusive: 3.98 µM [inhibitor, full curve]. For the same compound, the activity change, negative = inhibition [9] was inconclusive: 8.19%, the Potency [10] was inconclusive: 10 µM [activator, single point] and the Potency [11] was inconclusive: 15.8 µM [inhibitor, partial curve, poor fit]. The Potency [12] was inconclusive: 17.8 µM [inhibitor, partial curve, poor fit], the activity change, negative = inhibition [5] was inconclusive: 8.18% and the Potency [13] was inconclusive: 11.2 µM [inhibitor, partial curve]. For the same compound, the Potency [14] was “inactive”, the Potency [15] was “inactive” and the Potency [6] was “inactive and inconclusive: 31.6 µM [inhibitor, single point]”.

In the case of `NC(CCC(=O)NCS(=O)(=O)O)C(=O)O` (stereo unspecified), the Potency [5] is reported as “inactive”, the Potency [13] is reported as “inactive” and the Potency [6] is reported as “inactive”.
